The source of these data is publication PMC4336329 (PLoS ONE, 2015).

The structures appear in SMILES notation. Among all 310,000 compounds or so, about 2,200 (0.71%) showed an effect of 50% or more. Effects have a minus sign here. The list shows a part of the results.

human ether-à-go-go-related gene (hERG) potassium channel, sequence (Q12809 whole entry, looked up): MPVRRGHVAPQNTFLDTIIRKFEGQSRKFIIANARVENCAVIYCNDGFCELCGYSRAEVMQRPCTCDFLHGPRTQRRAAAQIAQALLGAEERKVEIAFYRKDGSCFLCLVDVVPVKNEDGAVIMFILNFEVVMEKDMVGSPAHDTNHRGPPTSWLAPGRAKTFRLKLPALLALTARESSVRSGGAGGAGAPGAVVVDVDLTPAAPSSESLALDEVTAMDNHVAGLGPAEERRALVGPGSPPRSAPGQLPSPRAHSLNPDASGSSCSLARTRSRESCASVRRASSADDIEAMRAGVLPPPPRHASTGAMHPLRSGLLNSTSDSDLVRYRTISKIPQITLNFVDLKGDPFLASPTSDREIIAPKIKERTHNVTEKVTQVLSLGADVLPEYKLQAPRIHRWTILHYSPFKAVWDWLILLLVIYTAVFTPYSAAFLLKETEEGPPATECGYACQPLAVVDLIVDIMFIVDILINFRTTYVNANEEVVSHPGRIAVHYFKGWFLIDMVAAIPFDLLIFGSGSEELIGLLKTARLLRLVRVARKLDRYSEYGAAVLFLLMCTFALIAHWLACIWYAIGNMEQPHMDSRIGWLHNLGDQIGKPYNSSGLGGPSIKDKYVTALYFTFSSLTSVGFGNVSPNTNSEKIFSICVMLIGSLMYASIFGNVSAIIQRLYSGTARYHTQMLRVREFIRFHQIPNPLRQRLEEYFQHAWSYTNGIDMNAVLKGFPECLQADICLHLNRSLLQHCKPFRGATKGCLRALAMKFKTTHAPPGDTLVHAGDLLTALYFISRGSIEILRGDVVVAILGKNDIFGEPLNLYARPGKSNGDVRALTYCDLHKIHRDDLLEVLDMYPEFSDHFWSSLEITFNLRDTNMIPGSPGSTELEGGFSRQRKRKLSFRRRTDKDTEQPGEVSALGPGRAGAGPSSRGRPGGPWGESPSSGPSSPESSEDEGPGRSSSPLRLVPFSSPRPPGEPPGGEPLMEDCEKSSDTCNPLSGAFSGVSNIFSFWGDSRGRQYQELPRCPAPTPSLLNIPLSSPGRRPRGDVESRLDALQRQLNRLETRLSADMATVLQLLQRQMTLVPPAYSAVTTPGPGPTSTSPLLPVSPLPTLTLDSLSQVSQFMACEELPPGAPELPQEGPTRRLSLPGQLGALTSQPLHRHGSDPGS

This test concerns the target human ether-à-go-go-related gene (hERG) potassium channel (human, UniProt Q12809). Briefly: primary screen, population patch clamp on CHO cells stably expressing hERG.
For the compound `O=C(Nc1cccc(NC(=O)c2ccccc2)n1)c1ccccc1`, the “hERG current change (%, negative = inhibition) at 1uM” value was 6.31%.
For `O=C(NCC1CCCO1)C1CCN(C2CCN(CCCC3CCCC3)CC2)CC1` (stereo not drawn), the “hERG current change (%, negative = inhibition) at 1uM” value is -5.53%.
On to `Cc1cc(C)c(C)c(S(=O)(=O)N2CCC(C(=O)OCC(=O)N3c4ccccc4NC(=O)C3(C)C)CC2)c1C`, for which the “hERG current change (%, negative = inhibition) at 1uM” value was found to be 9.76%.
To `COc1cc(NC(=O)C2CC2)c(OC)cc1NC(=O)CCC(=O)NC1CCN(Cc2ccccc2)CC1` belongs 11.5%; to `Fc1ccc(CNc2ncnc3cc(Cl)ccc23)cc1`, 20.1%.
Regarding `CCCC/C(=N/O)c1c(C)[nH]c2ccccc12`, the “hERG current change (%, negative = inhibition) at 1uM” value is 1.98%.
Take `Cc1c(C(=O)O/N=C(\N)c2ccccn2)cccc1[N+](=O)[O-]`: the “hERG current change (%, negative = inhibition) at 1uM” value worked out at 4.21%.
Take `O=C(Nc1ccncc1)c1cc(-c2ccccn2)nc2ccc(Br)cc12`: the “hERG current change (%, negative = inhibition) at 1uM” value came out at 13.7%.
To `Cc1cc(Cl)c2oc(C(=O)N3CCN(c4cccc(C)n4)CC3)c(C)c2c1` belongs 14%; to `CSc1nc2ccccc2n1CC(=O)Nc1c(C)cccc1C`, 9.29%; to `Cc1nc2ccccc2c2nc3ccccc3n12`, -1.26%.
For `CCN(C(=O)COC(=O)c1cccc(S(=O)(=O)N2CCOCC2)c1)C1CCS(=O)(=O)C1` (stereo not drawn), the “hERG current change (%, negative = inhibition) at 1uM” value worked out at 3.29%.
As to `CC(C)Cc1nnc(NC(=O)CCC(=O)N2CCN(c3ccc([N+](=O)[O-])cc3)CC2)s1`, the “hERG current change (%, negative = inhibition) at 1uM” value is listed as -34.8%.
For `S=c1nc(-c2cccc(Cl)c2)[nH][nH]1` the value was 12.8%; for `O=C(Nc1nnc(S(=O)(=O)N2CCCCCC2)s1)c1ccccc1Br`, 10.8%; for `O=C1CC(N2CCN(Cc3ccc4c(c3)OCO4)CC2)C(=O)N1c1cccc(Cl)c1` (stereo not drawn), -5.79%.
For `COc1ccc(C(=O)Nc2ccc(C)cc2C(=O)c2ccccc2)cc1` the value was 17%; for `O=C(Nc1ccc(N2CCOCC2)cc1)C1(c2ccc(Cl)cc2)CCC1`, 11.9%; for `O=C(COc1ccccc1)N/N=C/c1ccc(O[C@@H]2O[C@H](CO)[C@@H](O)[C@H](O)[C@H]2O)cc1`, 6.74%.
To `O=C(c1ccc([N+](=O)[O-])cc1)N(C1=NCCCCS1)c1ccccc1` belongs 3.32%.
In the case of `CCOc1ccc(-c2nnc(N(CC)C(=O)C3CCC3)s2)cc1`, the “hERG current change (%, negative = inhibition) at 1uM” value worked out at 6.77%.
For `Cc1nn2c(-c3ccncc3)nnc2c2ccccc12` the value was -1.4%.
For `COc1ccc(-c2noc(CCCC(=O)Nc3ccc(C(N)=O)cc3)n2)cc1` the value was 21.7%.
In the case of `CCC(C)C(=O)Nc1c2c(nc3c1CCC3)CCCC2` (stereo not drawn), the “hERG current change (%, negative = inhibition) at 1uM” value is reported as 4.8%.
Consider `Cc1csc(NC(=O)CSc2nnc(-c3cc(C)on3)o2)n1`, for which the “hERG current change (%, negative = inhibition) at 1uM” value is listed as 20.6%.
For `Cc1ccccc1OCCn1cnc2c(N)ncnc21`, the “hERG current change (%, negative = inhibition) at 1uM” value amounted to 13%.
For `Cc1ccc(N(CC(=O)NC(C)C)C(=O)CCC(=O)Nc2nccs2)cc1`, the “hERG current change (%, negative = inhibition) at 1uM” value is given as 11%.
Take `Cc1nc2ccccc2c2oc(C(=O)Nc3ccc4c(c3)OCCO4)cc12`: the “hERG current change (%, negative = inhibition) at 1uM” value was 9.89%.
For `Cc1cc(OCCOc2cccc3cccnc23)cc(C)c1Cl` the value was -7.97%; for `CN1Cc2c(c(C#N)c(N)n(C)c2=S)CC1(C)C`, 6.71%.
For the compound `CC(C)(C)NC(=O)C(c1ccccn1)N(C(=O)c1ccc2c(c1)OCCO2)C1CCCC1` (stereo not drawn), the “hERG current change (%, negative = inhibition) at 1uM” value worked out at 6.78%.
With `CC(C)Cn1c(N)c(C(=O)CSc2ccccc2)c(=O)n(C)c1=O`, the “hERG current change (%, negative = inhibition) at 1uM” value is recorded as 17.7%.
Consider `CCCc1ccc(S(=O)(=O)N(C)S(=O)(=O)c2ccc(F)cc2)cc1`, for which the “hERG current change (%, negative = inhibition) at 1uM” value is 8.42%.
`COc1ccc(C(=O)NCCS(=O)(=O)NCc2cccs2)cc1`: the “hERG current change (%, negative = inhibition) at 1uM” value was found to be 3.8%.
Consider `CN1CCN(c2ccc(S(=O)(=O)N3CCCCC3)cc2NC(=O)CCc2ccccc2)CC1`, for which the “hERG current change (%, negative = inhibition) at 1uM” value is on record as -16.9%.
As to `COc1ccc(Cc2nnc(N/N=C(\C)c3ccccc3)[nH]c2=O)cc1OC`, the “hERG current change (%, negative = inhibition) at 1uM” value was found to be 14.8%.
In the case of `c1cncc(CSc2ccc(-c3ccc4c(c3)OCO4)nn2)c1`, the “hERG current change (%, negative = inhibition) at 1uM” value is reported as 7.2%.
To `CCOc1ccc2[nH]c(=O)c(C(c3nnnn3Cc3ccco3)N3CCCC(C)C3)cc2c1` (stereo not drawn) belongs 11.6%; to `COc1ccc(C2C([N+](=O)[O-])=C(N)Oc3c2c(=O)oc2ccccc32)cc1` (stereo not drawn), 8.92%; to `CC(C)(C)OC(=O)N1CCC(NC(=O)c2[nH]cnc2C(=O)Nc2ccon2)CC1`, 2.9%.
For the compound `CCOc1ccc(NC(=O)CSC(N)=O)cc1`, the “hERG current change (%, negative = inhibition) at 1uM” value is listed as 14.5%.
For `CCOC(=O)c1sc(NC(=O)Nc2ccccc2Cl)cc1C` the value was 6.33%; for `CN(Cc1c(F)cccc1Cl)C(=O)c1ccc2ccccc2n1`, 5.58%.
In the case of `COCCn1c(SCC(=O)N2CCOCC2)nc2c(c1=O)SCC2`, the “hERG current change (%, negative = inhibition) at 1uM” value stood at 2.47%.
Regarding `Cn1c(C(=O)N2CCC(C(=O)NCc3ccccc3)CC2)cc2sccc21`, the “hERG current change (%, negative = inhibition) at 1uM” value is 17.4%.
For `COc1ccccc1Oc1coc2cc(OC(=O)N3CCOCC3)ccc2c1=O` the value was -22.4%; for `COC(=O)Nc1c(C)nn(Cc2ccccc2C)c1C`, -0.0507%.
To `COCCCNC(=O)c1ccc(Cn2c(=O)c3ccccc3n(Cc3cc(C)ccc3C)c2=O)cc1` belongs -7.73%; to `COc1ccc(/C=C2\CCc3ccccc3C2=O)cc1Cn1cccn1`, 9.56%.
For `Cc1cccn2cc(CCNC(=O)Cc3cccs3)nc12` the value was 6%; for `COc1cc2cc(CCCOC(=O)c3ccc(F)cc3)oc(=O)c2cc1OC`, 14.6%; for `Cc1ccc(-c2nc(NC(=O)c3ccc(S(=O)(=O)N(CCC#N)CCC#N)cc3)sc2-c2ccccc2)cc1`, 6.48%.
As for `Cn1ncc2c(NNC(=O)C3CCCCC3)ncnc21`, the “hERG current change (%, negative = inhibition) at 1uM” value was 16.3%.
Turning to `CCCN1CCc2c(sc(NC(=O)c3ccc(S(=O)(=O)N(C)c4ccccc4)cc3)c2C(=O)NC)C1`, the “hERG current change (%, negative = inhibition) at 1uM” value is listed as -11.9%.
Consider `Cn1cc(S(=O)(=O)N2CCCC(C(=O)O)C2)cn1` (stereo not drawn), for which the “hERG current change (%, negative = inhibition) at 1uM” value stood at 11.4%.
`Cc1ccc2nc(N(CCCN(C)C)C(=O)CN3C(=O)c4ccccc4C3=O)sc2c1.Cl`: the “hERG current change (%, negative = inhibition) at 1uM” value is on record as -1.44%.
Regarding `Cc1ncoc1C(=O)Nc1ccccc1C(N)=O`, the “hERG current change (%, negative = inhibition) at 1uM” value worked out at 6.87%.
For `C/C(=N\NC(=S)NC1CCCCC1)c1ccc(OC(F)F)cc1OC(F)F` the value was 2.56%; for `O=C(C1=C(O)C(=O)N(c2ncccn2)C1c1ccc(Cl)cc1)c1ccco1` (stereo not drawn), 14.8%; for `O=C(Nc1ccccc1)Nc1ccc2snnc2c1`, 14.6%.
For `O=C(O)c1ccc(-n2c(/C=C/c3ccccc3)nc3ccccc3c2=O)cc1`, the “hERG current change (%, negative = inhibition) at 1uM” value amounted to 2.81%.
With `COc1ccc(N2CCN(C(=O)CN(C)S(=O)(=O)c3cnc[nH]3)CC2)cc1`, the “hERG current change (%, negative = inhibition) at 1uM” value was 13.6%.
To `CN(C(=O)c1ccc2c(Cl)c3c(nc2c1)CCC3)c1ccccc1` belongs 23.1%.
As for `COc1ccc(OC)c(-c2nnc(SCC(=O)N3CCOCC3)o2)c1`, the “hERG current change (%, negative = inhibition) at 1uM” value is recorded as 13.8%.
For `CN(C(=O)CCN1CCCO1)C1CCCN(Cc2ccccc2F)C1` (stereo not drawn) the value was 24.2%.
With `O=C(NC1CCOCC1)C1CCC(=O)N(CCc2cccc(F)c2)C1` (stereo not drawn), the “hERG current change (%, negative = inhibition) at 1uM” value was 5.26%.
To `CCOC(=O)CCNC(=O)N1CCCC(C(=O)c2ccc3c(c2)OCO3)C1` (stereo not drawn) belongs 0.66%; to `CCc1ccc(S(=O)(=O)N2CCN(c3ncccn3)CC2)cc1`, 16.2%.
`CCOC(=O)c1oc2ccc(CNC(C)(C)C)c(Cl)c2c1C.O=C(O)C(=O)O`: the “hERG current change (%, negative = inhibition) at 1uM” value is reported as 8.1%.
For the compound `O=C(Cc1c(F)cccc1Cl)Nc1ccncc1`, the “hERG current change (%, negative = inhibition) at 1uM” value turned out to be 0.395%.
To `COc1ccc(C(=O)NCC23C=CC(O2)C2C(=O)N(Cc4ccccc4)C(=O)C23)cc1` (stereo not drawn) belongs -11.2%; to `Cc1ccc(S(=O)(=O)Nc2ccccc2C(=O)NCC2CCCO2)cc1` (stereo not drawn), 7.49%.
In the case of `O=C(Nc1ccc(S(=O)(=O)N2CCCC2)cc1)C1CCCCC1`, the “hERG current change (%, negative = inhibition) at 1uM” value was 8.94%.
In the case of `CN(C)CCn1c(=O)n(C2CCCCC2)c(=O)c2c3c(sc21)CCCCC3`, the “hERG current change (%, negative = inhibition) at 1uM” value is listed as -0.636%.
For `COC(=O)Cn1c(=O)c2c(nc(Br)n2Cc2ccccc2Cl)n(C)c1=O`, the “hERG current change (%, negative = inhibition) at 1uM” value was 2.48%.
In the case of `Cc1ccc(SCC(=O)OCC(=O)N(C)CC(=O)Nc2ccc(F)cc2)cc1C`, the “hERG current change (%, negative = inhibition) at 1uM” value is listed as 3.82%.
Take `Cc1cc(OCC(=O)Nc2cccc(S(=O)(=O)N3CCCCC3)c2)ccc1Cl`: the “hERG current change (%, negative = inhibition) at 1uM” value is 9.7%.
Regarding `CN1C(=S)SC2CS(=O)(=O)CC21C` (stereo not drawn), the “hERG current change (%, negative = inhibition) at 1uM” value was 6.95%.
For `Cc1cc2oc(=O)cc(Cn3ccnc3)c2cc1Cl` the value was 12.3%; for `CCCOc1ccc2oc(=O)c3c(c2c1)CCCN3C(=O)CN1CCN(c2ncccn2)CC1`, -18.7%; for `Cc1ccc(C(=O)Nc2ccc(S(=O)(=O)N3CCc4ccccc4C3)cc2)o1`, 1.08%.
For `COc1cc(OC)cc(-c2cc3nc(C4CCN(C(=O)OC(C)(C)C)CC4)cc(=O)n3[nH]2)c1` the value was 4.02%; for `O=C(CSc1nnc(-c2ccccc2)c2ccccc12)NCCN1C(=O)CSC1=O`, -2.85%.
Regarding `O=C(OCC(=O)N1CCN(C(=O)c2ccco2)CC1)c1cc(-c2cccc(Br)c2)nc2ccccc12`, the “hERG current change (%, negative = inhibition) at 1uM” value is -14.2%.
To `CN(CC(=O)Nc1ccc(Cl)c(Cl)c1)C(=O)/C=C/c1ccc(F)cc1` belongs 5.65%; to `Cc1ccc(C(=O)c2cc([N+](=O)[O-])ccc2N2CCOCC2)cc1C`, 14.4%; to `C=CCN1C(=O)C(CC(=O)O)SC1=Nc1ccc(C)cc1` (stereo not drawn), 13.3%.
